Experimental data taken from the supplement of paper PMC9446081.
Screen size: about 39,000 compounds; about 220 (0.56%) showed activity. This is one part of the list.

tested on: Escherichia coli K-12 BW25113; assay: relative growth (OD600 normalised to plate interquartile mean) (fraction); higher = less growth inhibition, active = 0.2 or less; conditions: 50 µM; LB; incubation time: overnight (16-24 h)
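Also: static incubation at 37 °C against the wild-type strain, values averaged over two biological replicates.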

| Compound | relative growth |
| --- | --- |
| O=C(C[C@H]1CC[C@H]2[C@@H](COC[C@@H](O)CN2S(=O)(=O)c2ccccc2Cl)O1)NCCc1ccncc1 | inactive: 0.977 |
| C[C@@H]1CN([C@@H](C)CO)C(=O)c2cccc(NS(=O)(=O)c3cn(C)cn3)c2O[C@@H]1CN(C)Cc1ccc(C(=O)Nc2ccccc2N)cc1 | inactive: 1.02 |
| Cc1ccc(S(=O)(=O)N(C)C[C@@H]2OCCCC[C@H](C)Oc3ccc(NC(=O)NC4CCCCC4)cc3C(=O)N([C@H](C)CO)C[C@H]2C)cc1 | inactive: 1.01 |
| CN(C)C(=O)c1cccc(-c2cccc(-c3nc(C(=O)NCc4ccccc4)cc4c3[C@H](CCO)N([S@@](=O)C(C)(C)C)C4)c2)c1 | inactive: 1.01 |
| C[C@@H]1CCCCO[C@@H](CN(C)S(=O)(=O)c2ccc(Cl)cc2)[C@H](C)CN([C@H](C)CO)C(=O)c2cc(NS(=O)(=O)c3ccccc3)ccc2O1 | inactive: 0.991 |
| C[C@@H]1ON(c2ccc(C(=O)OC(C)(C)C)cc2)[C@H](c2ccc(Br)cc2)[C@H]1C(=O)N1C(=O)OC[C@H]1Cc1ccccc1 | inactive: 0.971 |
| C[C@@H]1CCCCO[C@H](CN(C)CC2CCCCC2)[C@@H](C)CN([C@H](C)CO)C(=O)c2cc(NC(=O)CCCCCC(=O)Nc3ccccc3N)ccc2O1 | inactive: 0.968 |
| CN1CCOC(c2ccccc2)c2ccccc2C1 (configuration not stated) | inactive: 0.972 |
| COCCN(C)C(=O)c1ccc2nnc([C@H]3CN(S(C)(=O)=O)CCN3C)n2c1 | inactive: 1.01 |
| C[C@H](CO)N1C[C@H](C)[C@@H](CN(C)Cc2ccc(-c3ccccc3)cc2)Oc2ccc(NS(=O)(=O)c3ccc(F)cc3)cc2CC1=O | inactive: 0.985 |
| Cc1noc(C)c1S(=O)(=O)Nc1cccc2c1O[C@H](CN(C)S(C)(=O)=O)[C@H](C)CN([C@H](C)CO)C2=O | inactive: 0.978 |
| C[C@@H]1CN([C@@H](C)CO)C(=O)c2cc(C#Cc3ccccc3F)cnc2O[C@@H]1CN(C)S(=O)(=O)c1ccccc1 | inactive: 1.01 |
| NC1(C(=O)O)CC(C(=O)O)C1 (configuration not stated) | inactive: 0.99 |
| CNCCC(Oc1ccccc1C)c1ccccc1.Cl (configuration not stated) | inactive: 1.04 |
| O=C(C[C@H]1CC[C@H]2[C@@H](COC[C@@H](O)CN2S(=O)(=O)c2cccc(F)c2)O1)NCc1ccc2c(c1)OCO2 | inactive: 1.01 |
| Cc1ccc(-c2cnc3c(c2)C(=O)N([C@@H](C)CO)C[C@H](C)[C@@H](CN(C)C(=O)Cc2cccnc2)O3)cc1 | inactive: 0.988 |
| C[C@@H]1CN([C@@H](C)CO)C(=O)c2cccc(NS(=O)(=O)c3cccs3)c2O[C@@H]1CN(C)CC1CC1 | inactive: 0.982 |
| OC[C@@H](O)[C@H]1O[C@H](c2ccccc2)OC[C@@H]1O | inactive: 1.05 |
| CC(=O)O[C@H]1[C@@H](OC(C)=O)C(C)(C)/C=C/[C@@](C)(O)C(=O)[C@]2(O)[C@H]([C@@H](OC(C)=O)[C@](C)(OC(C)=O)[C@H]2OC(C)=O)[C@H]2OC(=O)CC[C@@]2(OC(C)=O)[C@@H]1OC(=O)C(C)C | inactive: 0.992 |

| Compound | relative growth |
| --- | --- |
| O=C(C[C@@H]1CC[C@@H]2[C@H](COC[C@@H](O)CN2C(=O)c2cccnc2)O1)NCc1ccc(-c2ccccc2)cc1 | inactive: 0.997 |
| COc1ccc(S(=O)(=O)N(C)C[C@H]2Oc3ncc(C#CC4(O)CCCC4)cc3C(=O)N([C@@H](C)CO)C[C@H]2C)cc1 | inactive: 1 |
| C[C@H](CO)N1C[C@H](C)[C@H](CN(C)Cc2ccc(Cl)c(Cl)c2)Oc2ccc(NC(=O)CCCCCC(=O)Nc3ccccc3N)cc2C1=O | inactive: 0.986 |
| C[C@H]1CCCCO[C@H](CN(C)C(=O)Nc2ccc(F)cc2)[C@@H](C)CN([C@@H](C)CO)C(=O)c2cc(NC(=O)Nc3ccc4c(c3)OCO4)ccc2O1 | inactive: 1 |
| COc1ccc(CN(C)C[C@@H]2Oc3ccc(NC(=O)Cn4cnnn4)cc3CC(=O)N([C@@H](C)CO)C[C@H]2C)cc1 | inactive: 1 |
| C[C@H](CO)N1C[C@H](C)[C@@H](CN(C)CC2CC2)Oc2ccc(NS(=O)(=O)c3cn(C)cn3)cc2C1=O | inactive: 0.969 |
| COc1ccc(NC(=O)N(C)C[C@H]2Oc3c(NC(=O)Nc4ccc(C(F)(F)F)cc4)cccc3C(=O)N([C@H](C)CO)C[C@@H]2C)cc1 | inactive: 0.84 |
| Cc1noc(C)c1NC(=O)Nc1ccc2c(c1)C(=O)N([C@H](C)CO)C[C@@H](C)[C@H](CN(C)Cc1ccc(C(=O)O)cc1)OCCCC[C@H](C)O2 | inactive: 0.994 |
| C[C@@H]1CN([C@@H](C)CO)C(=O)c2cc(NC(=O)CCCN(C)C)ccc2O[C@@H](C)CCCCO[C@@H]1CN(C)Cc1ccc(C(F)(F)F)cc1 | inactive: 0.961 |
| COCCNC(=O)C[C@H]1CC[C@H]2[C@@H](COC[C@@H](O)CN2C(=O)Nc2ccccc2OC)O1 | inactive: 0.949 |
| CCS(=O)(=O)Nc1ccc2c(c1)C(=O)N(C)C[C@H](OC)[C@H](C)CN(Cc1nccs1)[C@@H](C)CO2 | inactive: 1 |
| O=C1[C@@H]2[C@H](O)CS[C@@H]2C(=O)N1c1ccccc1 | inactive: 1.01 |
| C[C@@H]1CN([C@H](C)CO)C(=O)c2cccc(NC(=O)c3cnccn3)c2O[C@H]1CN(C)C(=O)NC1CCCCC1 | inactive: 0.913 |
| C[C@@H]1CCCCO[C@@H](CN(C)C(=O)Nc2ccc(C(F)(F)F)cc2)[C@H](C)CN([C@@H](C)CO)C(=O)c2cc(NC(=O)C3CCCCC3)ccc2O1 | inactive: 1.01 |
| CN1C(=O)c2cc(NC(=O)c3ccc(C(F)(F)F)cc3)ccc2OC[C@@H]2O[C@@H](CC(=O)NC3Cc4ccccc4C3)CC[C@H]21 | inactive: 1.03 |
| C[C@H]1CCCCO[C@@H](CN(C)Cc2ccc(C(=O)O)cc2)[C@@H](C)CN([C@@H](C)CO)C(=O)c2cc(NS(=O)(=O)c3ccc(Cl)cc3)ccc2O1 | inactive: 1 |
| Cc1ccc(S(=O)(=O)Nc2ccc3c(c2)CC(=O)N([C@@H](C)CO)C[C@H](C)[C@@H](CN(C)CC2CC2)O3)cc1 | inactive: 1.01 |
| C[C@@H]1CCCCO[C@H](CN(C)C(=O)CCC(F)(F)F)[C@@H](C)CN([C@H](C)CO)C(=O)c2cc(NS(=O)(=O)c3ccc(Cl)cc3)ccc2O1 | inactive: 1.01 |
| C[C@@H]1CN([C@@H](C)CO)C(=O)Cc2cc(NC(=O)CCCCCC(=O)Nc3ccccc3N)ccc2O[C@@H]1CN(C)Cc1ccccc1 | inactive: 0.976 |

| Compound | relative growth |
| --- | --- |
| C[C@@H]1CCCCO[C@H](CN(C)C(=O)Nc2ccc(F)cc2)[C@H](C)CN([C@@H](C)CO)C(=O)c2cc(NC(=O)CCCN(C)C)ccc2O1 | inactive: 0.974 |
| CN1C(=O)c2cc(NC(=O)c3cccs3)ccc2OC[C@H]2O[C@@H](CC(=O)NCC(F)(F)F)CC[C@H]21 | inactive: 0.861 |
| COc1cccc(-c2cn(CC[C@H]3CC[C@@H](NC(=O)CN(C)C)[C@H](CO)O3)nn2)c1 | inactive: 1.01 |
| C[C@H]1CCCCO[C@H](CN(C)C(=O)Cc2ccccc2)[C@@H](C)CN([C@@H](C)CO)C(=O)c2cc(NS(=O)(=O)c3cccs3)ccc2O1 | inactive: 1.01 |
| COc1ccc(CN(C)C[C@H]2OCCCC[C@H](C)Oc3ccc(NC(=O)Cc4ccccc4)cc3C(=O)N([C@H](C)CO)C[C@H]2C)cc1 | inactive: 0.974 |
| CC(C)NC(=O)N(C)C[C@@H]1Oc2c(NS(=O)(=O)c3cn(C)cn3)cccc2C(=O)N([C@@H](C)CO)C[C@H]1C | inactive: 1.02 |
| COc1ccc(S(=O)(=O)N(C)C[C@H]2Oc3cc(C#CC4CCCC4)ccc3S(=O)(=O)N([C@H](C)CO)C[C@@H]2C)cc1 | inactive: 1.02 |
| COC(=O)CC1C(C)(C)C(=O)C2CC3=C(CCC4(C)C3=CC(=O)OC4c3ccoc3)C1(C)C2=O (configuration not stated) | inactive: 1.02 |
| O=C1O[C@@H](c2ccccc2)[C@@H](c2ccccc2)N2[C@@H](c3ccc(O)cc3)[C@]3(C(=O)Nc4ccc(C#CC5(O)CCCCCC5)cc43)[C@@H](C(=O)NC[C@H](O)c3ccccc3)[C@H]12 | inactive: 1 |
| O=C(C[C@@H]1CC[C@H]2[C@@H](COC[C@@H](O)CN2C(=O)c2cnccn2)O1)NCc1ccc(Oc2ccccc2)cc1 | inactive: 0.983 |
| COc1cccc(S(=O)(=O)Nc2ccc3c(c2)[C@@H]2C[C@H](CC(=O)NCc4ccccc4F)O[C@@H](CO)[C@@H]2O3)c1 | inactive: 0.978 |
| Cc1ccc2n[nH]c(C(=O)N3CCN4C(=O)CNC(=O)[C@@H]4C3)c2c1 | inactive: 1 |
| C[C@H]1CCCCO[C@H](CN(C)CC2CCCCC2)[C@@H](C)CN([C@@H](C)CO)C(=O)c2cc(NC(=O)C3CCCCC3)ccc2O1 | inactive: 0.973 |
| Cc1ccc(S(=O)(=O)N(C)C[C@H]2OCCCC[C@H](C)Oc3ccc(NC(=O)C4CCCCC4)cc3C(=O)N([C@H](C)CO)C[C@H]2C)cc1 | inactive: 1.03 |
| C[C@H]1CN([C@@H](C)CO)C(=O)c2cc(Br)cnc2O[C@H]1CN(C)Cc1ccc2c(c1)OCO2 | inactive: 0.983 |
| C[C@@H]1CCCCO[C@H](CN(C)Cc2ccc(C(F)(F)F)cc2)[C@@H](C)CN([C@H](C)CO)C(=O)c2cc(NC(=O)Nc3ccc(C(F)(F)F)cc3)ccc2O1 | inactive: 0.984 |
| C[C@H]1CN([C@@H](C)CO)C(=O)Cc2cc(NC(=O)Cc3cn(C)c4ccccc34)ccc2O[C@H]1CN(C)C | inactive: 1 |
| C[C@H](CO)N1C[C@H](C)[C@@H](CN(C)C(=O)Nc2ccc(C(F)(F)F)cc2)Oc2ccc(NC(=O)CCCCCC(=O)Nc3ccccc3N)cc2CC1=O | inactive: 0.99 |
| CO[C@@H](CN(C)S(=O)(=O)c1cn(C)cn1)[C@H](C)CN(C(=O)Nc1ccc(C(F)(F)F)cc1)[C@@H](C)CO | inactive: 0.909 |
